The GPR68 mutational scans of Howard et al. (2025)
The least precise scores are not listed. Not listed are two conditions whose scores span a narrow range. Read del as a deletion of the residues named and ins as an insertion between two positions. For some of these results: The data file names ogerin without a concentration.

B1: GPR68, Q15743 (parent)
chain: MGNITADNSSMSCTIDHTIHQTLAPVVYVTVLVVGFPANCLSLYFGYLQIKARNELGVYLCNLTVADLFYICSLPFWLQYVLQHDNWSHGDLSCQVCGILLYENIYISVGFLCCISVDRYLAVAHPFRFHQFRTLKAAVGVSVVIWAKELLTSIYFLMHEEVIEDENQHRVCFEHYPIQAWQRAINYYRFLVGFLFPICLLLASYQGILRAVRRSHGTQKSRKDQIQRLVLSTVVIFLACFLPYHVLLLVRSVWEASCDFAKGVFNAYHFSLLLTSFNCVADPVLYCFVSETTHRDLARLRGACLAFLTCSRTGRAREAYPLGAPEASGKSGAQGEEPELLTKLHPAFQTPNSPGSGGFPTGRLA

Legend:
[1] = variants of: B1; assay: cAMP reporter score (Enrich2 score, wild type = 0); higher = more signal; HEK293T, FACS bins
[2] = variants of: B1; assay: surface expression score (Enrich2 score, wild type = 0); higher = more signal; HEK293T, FACS bins

| Variant | cAMP reporter score ([1]; pH 5.5) | cAMP reporter score ([1]; pH 6, modulator: ogerin) | cAMP reporter score ([1]; pH 6.5, modulator: ogerin) | surface expression score [2] | cAMP reporter score ([1]; pH 6) |
| --- | --- | --- | --- | --- | --- |
| F129_H130insGSG | -0.96 | -0.191 | -1.18 | -1.1 | – |
| P126C | -0.079 | -0.776 | -0.433 | – | 1.34 |
| P126H | -0.805 | -1.31 | -1.55 | -2.06 | -0.86 |
| P126L | -2.51 | -3.09 | -2.15 | -2.1 | – |
| P126Y | -1.53 | -2 | -1.29 | -2.16 | -1.23 |
| P126S | -0.851 | -1.55 | -1.68 | -1.43 | -1.06 |
| P126T | -0.867 | -0.643 | -0.506 | – | -0.803 |
| P126A | -2.12 | -1.7 | – | -1.97 | – |
| P126Q | -1.46 | -1.53 | -2.39 | -1.65 | -2.86 |
| P126D | -0.685 | -1.45 | -1.02 | -2.37 | -0.363 |
| P126M | -2.17 | -1.34 | -2.33 | -2.43 | – |
| P126E | -1.05 | -1.25 | -1.06 | -0.084 | -1.6 |
| P126V | -0.416 | -1.85 | -0.775 | – | -0.595 |
| P126K | -1.31 | -1.72 | -1.14 | -1.54 | -1.55 |
| P126N | -0.57 | -0.793 | -1.22 | -2.47 | – |
| P126R | -1.13 | – | -1.31 | -0.865 | -0.942 |
| C114Q | -0.815 | -1.75 | -1.08 | -2.15 | 0.591 |
| C114Y | -0.763 | -1.02 | -0.797 | -0.786 | -0.356 |
| C114W | -0.44 | -1.52 | -1.26 | -2.5 | -0.596 |
| C114T | 0.827 | 1.35 | 0.069 | -0.954 | – |
| C114S | -0.596 | -0.99 | -1.29 | -1.57 | -1.02 |
| C114P | -2.29 | – | – | -2.39 | -1.71 |

| Variant | cAMP reporter score ([1]; pH 5.5) | cAMP reporter score ([1]; pH 6, modulator: ogerin) | cAMP reporter score ([1]; pH 6.5, modulator: ogerin) | surface expression score [2] | cAMP reporter score ([1]; pH 6) |
| --- | --- | --- | --- | --- | --- |
| C114R | -1.16 | -1.98 | -1.73 | -2.57 | -0.529 |
| C114V | 0.554 | 0.483 | 0.866 | -0.832 | 2.12 |
| R119_Y120insG | -1.99 | -2.11 | -1.67 | -2.54 | -0.861 |
| Y120_L121insGS | -3.35 | – | – | – | -1.17 |
| V117_D118insG | -2.53 | -3.49 | -1.49 | – | -0.968 |
| L121_A122del | -1.22 | -1.35 | -1.05 | -1.92 | -0.408 |
| C114_I115del | -1.01 | -1.43 | -0.821 | -1.71 | -1.64 |
| P126_F127insGSG | -1.23 | -1.64 | -1.12 | -2.04 | -1.23 |
| V123_A124insG | -2.23 | – | -2.27 | – | -1.24 |
| F129_H130insGS | -1.32 | -1.68 | 0.416 | -1.83 | – |
| H130_Q131insG | -1.57 | -1.06 | -0.78 | -1.41 | – |
| S116_V117insG | -1.85 | -1.46 | -0.611 | -1.78 | -0.028 |
| H130N | -0.436 | -0.745 | -0.948 | -0.101 | -0.72 |
| H130C | 0.179 | -0.721 | -0.404 | -0.812 | – |
| H130T | -0.494 | – | – | – | -0.598 |
| H130E | -0.756 | -0.884 | -0.834 | 0.013 | -1.18 |
| H130G | 1.41 | 1.34 | 0.23 | 0.423 | 0.063 |
| H130M | 1.02 | 1.16 | -0.522 | 0.68 | 0.076 |
| H130K | -0.244 | -0.113 | -0.455 | 0.244 | -0.237 |
| H130V | 0.339 | 0.711 | 0.014 | 0.17 | -0.47 |
| H130Y | -0.543 | -0.527 | -0.621 | -0.7 | -0.205 |
| H130W | -0.793 | -1.29 | -0.949 | -1.84 | -0.83 |

| Variant | cAMP reporter score ([1]; pH 5.5) | cAMP reporter score ([1]; pH 6, modulator: ogerin) | cAMP reporter score ([1]; pH 6.5, modulator: ogerin) | surface expression score [2] | cAMP reporter score ([1]; pH 6) |
| --- | --- | --- | --- | --- | --- |
| H130Q | 0.131 | 0.094 | 0.976 | 0.826 | 1.23 |
| H130R | 0.496 | 0.815 | 0.406 | 1.57 | 0.064 |
| H130L | 0.124 | 0.767 | 0.971 | -0.155 | 0.305 |
| H130P | -0.875 | -0.347 | -0.087 | 1.19 | -1.89 |
| H130A | -0.336 | 0.517 | -0.903 | -0.013 | -1 |
| H130D | -0.72 | -1.06 | -0.889 | -1.54 | -0.544 |
| I115_S116insGS | -2.06 | – | -2.27 | – | -0.363 |
| I115S | -1.26 | -1.06 | -1.45 | -2.28 | -1.23 |
| I115D | -1.98 | – | -1.12 | -3.46 | -2.06 |
| I115F | -0.96 | – | – | -0.84 | -0.589 |
| I115N | -1.89 | -1.58 | -1.6 | -1.87 | -1.69 |
| I115W | -1.85 | -1.33 | -1.47 | -2.82 | -0.699 |
| I115H | -0.848 | -0.246 | -1.96 | -2.82 | -0.935 |
| I115Y | -2.17 | – | -1.54 | -2.67 | 0.104 |
| I115G | -0.429 | – | -0.401 | -0.823 | 0.729 |
| I115T | -1.41 | -1.73 | -1.2 | -3.17 | -0.7 |
| I115Q | -1.97 | – | – | – | -0.683 |
| I115R | -1.29 | – | -0.612 | -2.66 | -0.776 |
| I115M | -0.422 | -0.077 | -1.23 | -1.41 | 0.472 |
| I115A | -0.61 | -0.436 | -0.697 | -2.06 | -0.81 |
| I115E | -1.3 | – | -1.08 | -2.49 | -0.348 |
| I115V | 0.74 | -0.414 | -0.362 | -1.71 | – |
